Reference: the supplement of paper PMC3334620
In all, about 33,000 sequences were measured (“E-score (-0.5 to 0.5)”: median about -0.056, highest 2% from about 0.38 on). Some of the results follow.

Biological target: Stb4 (UniProt P50104)
Experiment: PBM E-score (8-mer binding enrichment) (E-score (-0.5 to 0.5)); higher = stronger / more preferred TF binding; most listed sequences are background and not binding sites
Conditions: protein concentration: 200 nM; construct: GST-DNA-binding domain
Procedure, shortened: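 E-scores (a modified Wilcoxon-Mann-Whitney statistic) were assigned by the Universal PBM Analysis Suite to every ungapped eight-base word pooled with its reverse complement. The input came from universal all-10-mer Agilent arrays made double-stranded by primer extension and probed with GST-tagged yeast transcription factors at about 100-200 nM. Fluorescent anti-GST detected bound protein, and masliner normalised the scans.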

Sequence	PBM E-score
AGTGTCGA	0.0114
CCGTGCCA	0.0921
GGCAAAAC	0.136
CACGAAAC	-0.119
ACGATATA	-0.113
CACAGAAG	-0.211
CCTCCAAC	-0.242
TCATCCGA	0.473
TAGCAGCA	-0.269
CCGACGCG	0.397
ATATAAGC	-0.0633
TAATGGGA	-0.277
ACATGCTC	-0.101
GAAATTTA	-0.0277
ATAAAAGG	-0.0722
GGAAAGAC	0.182
TCTATTAA	-0.0416
AGTCCAAG	-0.149
GCAATACC	-0.069
GCGACCTA	-0.11
AGGACAAC	-0.109
GCTGGTGA	-0.0202
CCTAAGCG	-0.0227
CTGGCAAG	-0.185
CAGTAGAG	-0.221

Sequence	PBM E-score
AGCTTATG	-0.168
ATTATCTC	0.0642
TAAGGAAA	-0.0592
CGGTTCGA	0.206
AGAGCCGG	0.24
ATTGTTAC	0.0363
GGTGCAAC	0.163
GAGTCGGA	0.387
ACGCCGAG	0.352
AGCTCGCG	-5e-05
CACGACCG	-0.128
AGGACGCG	-0.01
AAAAGACG	-0.089
ACGTCTGC	-0.116
ACAAGTTA	0.0953
ATGAAGAA	-0.085
GCTCATAC	-0.231
GAAAGCCC	0.0933
ATCAAGCA	-0.0436
CTGCGGTC	-0.16
TATGACGA	-0.111
AGTCTATG	-0.315
CCTTAAAA	-0.413
ATCCATAG	-0.0183
CCAGTATA	-0.0596

Sequence	PBM E-score
GGCTGGTA	0.0186
CCGATTCC	0.348
AGGTGCAG	-0.204
CCATCGGG	0.297
AGTTGTGC	-0.0711
ATACTGGC	-0.19
AACGTGGT	-0.149
GATCCACC	-0.00862
GAATTCTC	0.181
AGAGCCCA	-0.152
ACTCCACA	-0.195
ATTCGGGC	0.301
CTACTCAC	-0.127
AACGGTTG	-0.165
GAGTATAA	-0.00582
TCCCTAAA	-0.213
AGACGGAA	0.285
ACGAATTA	-0.00352
AAAGTGAA	-0.126
CCCAATGC	-0.17
CCCTGGTC	-0.161
ACCTGAAT	-0.00737
GTAATTTA	0.0332
GCGCGGAC	0.0044
CGTTTTAA	-0.114

Sequence	PBM E-score
ACCAAAGG	-0.233
CTAACTCA	-0.262
ATCGAACA	-0.22
CTAGATTC	0.018
CGGATGGC	0.347
GCGTTCGA	-0.248
ACATTTTA	-0.0015
AGCCCAAA	-0.11
GGCGCAAA	0.021
CCCGCCAA	0.232
GCCAGAGC	-0.195
CGGGCGGC	0.186
ACAGCAGT	-0.0352
CGTGGGTC	-0.185
AGAGGGAC	-0.222
CGAAGCGA	0.0309
AAACTCAA	0.0329
ATGTTTCC	0.261
AAGTGACT	-0.0801
CCTGGTGA	-0.225
CAATCTCC	0.0935
AACCCGAC	0.324
CAGCGTTC	-0.00962
AATGTATA	0.0432
GCATGGAA	0.0186

Sequence	PBM E-score
ACTACTCT	-0.216
GACCGAGC	0.291
ACTGGACA	-0.1
ACGTGACA	-0.218
AGAAACCT	0.0967
ACACCGAA	0.265
GTCCGTCA	0.0792
AGCGTCTA	-0.135
CTTCAAAA	-0.184
CAGTCAGC	-0.0974
AAAATGGA	0.0859
GAATCGAA	-0.11
ACTCAATA	-0.0696
CATGTACG	0.00195
GCAATAAC	-0.0319
GACCGACA	0.165
GCTTTATA	-0.0172
AATAGGAC	-0.167
AATCGTAC	-0.0162
ATAGTATA	0.0732
AACACTAT	-0.0377
AGTGTCAC	-0.085
AGAGTAAG	-0.226
CCGTGCAA	0.0384
GGATGACC	0.0622

Sequence	PBM E-score
TACAACTA	-0.0303
AGCAGCAC	-0.196
ATGAAACA	-0.00932
CTGTCGTC	-0.179
AGGGGTCG	-0.202
CTGCTGAA	-0.191
GACCAGCC	0.156
CCCTATGA	-0.161
CCATTGCG	-0.0704
TCATTGGA	-0.163
CTCATTAA	-0.107
TGAGACAA	-0.0128
AAGGCACT	-0.143
ATGCGGTG	-0.279
CCTTGAAA	-0.127
GAACCATA	0.106
ATAAGCAA	-0.14
TGAGTACA	-0.352
CTCCCTGC	-0.304
ATTGCACG	0.0832
ACACCTCG	0.168
GAGGACGA	0.0428
TGATGAAA	-0.176
GCAGGAAA	-0.174
CGAAGAAC	0.0729

Sequence	PBM E-score
AATTAGTA	-0.0746
AGTCTCTA	-0.307
CCGGTAGC	0.164
CTCAGTTA	-0.092
CTCTCTCC	-0.0466
CGGTCGAG	0.088
GTGCGAGA	-0.156
ATTCAGAG	0.0253
CCGAACTA	0.395
CACGAGAC	-0.145
GTCGGTCA	0.0354
CGGGTCAC	0.19
AAACGGTT	-0.0389
ACGCCTAG	-0.206
AGAATCGA	-0.0393
CGTATCAG	0.0327
AAAGTCCG	0.206
AGACTGAA	-0.22
CCCGTTCG	0.261
ACCTCCAT	-0.0501
AACTTGGT	-0.159
CCCGGACA	0.264
ACACGCGA	-0.101
ATCCAGCC	0.0534
CTTATGTA	-0.114

Sequence	PBM E-score
TAACGTAA	-0.132
TAGATTCA	-0.0317
CTTTTAAC	-0.164
GTGCGTCA	-0.101
CAACTAGC	0.0199
GGTACGCA	-0.0106
GTGCCGTA	0.125
CGGACAGA	0.129
ACCGTTAG	-0.159
AGCCAATG	-0.196
AATATGAC	-0.0101
CCTATTAA	-0.0295
CAGATAAC	0.0308
ACTCGTGG	-0.22
CTCTCAGA	-0.238
CCCTGCCG	0.165
GAGGAGGA	-0.152
AATTATTG	-0.039
ACCGGTAA	0.183
GTGTCGTA	-0.0741
CCACGGGG	0.00664
CCGCCAAC	0.233
GTGAGAAA	0.0503
AAAGAGTT	-0.153
AAACAACC	0.00653

Sequence	PBM E-score
GTTAGAAA	0.1
CCCGCATA	0.195
GCCGTACA	0.0973
AGAGAGGA	-0.157
ATTTCTGC	0.00147
CTTAAGCA	-0.0708
CGTCAGCC	0.0877
ATAATACA	0.0246
CGAACAAC	0.0944
ATAGTCCG	0.101
GATGGGCC	0.0871
GATGAACC	0.14
TAAGAGAA	-0.344
GATGGCTA	0.1
TGAACACA	-0.03
AGTCATAG	-0.233
CCCTTTCG	0.124
AACTTCAC	-0.137
AGTTCTAG	-0.0358
AGGCTAGC	-0.217
ATGTAACG	0.085
CAGCCAAG	-0.308
AACTGGGG	-0.0271
ATACTACC	-0.0201
AAAGACAC	0.121

Sequence	PBM E-score
AAACTAGA	-0.167
CTCTACTC	-0.106
GTTAGAGA	-0.2
AATTCCCA	-0.299
AGAACTTA	0.0665
ATAGGTAC	-0.0409
CTTTCGAA	-0.204
AGACCATG	-0.164
ACCTAGGG	-0.158
ATATCACA	-0.136
AAACGTAA	-0.046
CAAGGGAC	-0.332
CACGGGTA	0.333
AGATGGTA	0.107
AGCGTCTG	-0.164
TATTCAGA	-0.164
ATCGTTCC	0.234
ACCCTTAG	-0.25
CTGCTAAA	-0.0654
CGTGGCGC	-0.216
AGTTACAT	-0.102
GCGGGACA	0.163
TACCAATA	-0.261
AAAAAGCA	-0.185
GAGTTCAC	-0.0366

Sequence	PBM E-score
AAAGGATG	-0.155
CCACATAG	0.0856
AAAGTCAC	0.0146
CCCCCTAA	-0.318
TCACTACA	0.00111
CAGTAAGG	-0.225
CTTAGCGC	0.0274
AGAACGAC	-0.0248
AAACGAAT	-0.0774
GGACCGCC	-0.0138
ACCGTGCT	0.0286
AGTATTGG	-0.195
CAGGTATG	-0.0124
CGCTCGAC	-0.255
TCGGATCA	0.46
CTCCTGAC	-0.221
AGAATTAT	0.0197
ACAGCTGA	-0.149
ACGTCGGA	0.389
CGCTCCCG	0.286
CTGTGCCA	-0.0441
CATGGACG	-0.0825
CGCGCCGC	0.168
ACCAACCC	-0.13
ACTGCTCC	0.0514

Sequence	PBM E-score
AGTCGGGC	0.157
GGAGCTGA	-0.0874
CTTCCTCC	0.00764
AGGTTCAG	-0.0723
CTTAAAAA	-0.232
AACGCGTG	-0.167
CTAAGCTA	-0.0905
AAGTCACC	-0.0111
AAGGGTAA	-0.0859
CCAGAGGA	-0.178
AAATCAGG	-0.307
ACACGAGG	-0.0575
CCGAACGC	0.415
GATGGTCA	0.0045
TGCAAGAA	-0.0278
CCTCCGAG	0.4
GGATCGGA	0.402
GAATGGAA	0.0587
CTGAACAA	-0.0548
CTTAGATC	-0.216
CGAAATCG	0.242
ACGGCTAG	0.12
GGTGACTA	-0.00959
AACCCATT	-0.00875
CCTGATGC	0.0382

Sequence	PBM E-score
ACTGTATG	0.0265
CGGCCAGA	0.172
CGTGTAGA	-0.0786
CACGTCAC	-0.147
GGGATCCA	0.14
ATATAACG	-0.0292
CGTACGGC	-0.0501
CAATATAA	0.151
TGCGAGCA	-0.165
ATTGAACA	0.0813
ATACCCAG	-0.255
CCCGAGAA	0.44
AGGTGACG	-0.178
AAGAGTCG	0.0179
CGCGCGTC	0.0521
CGCAGCGA	-0.0944
ATATGAGG	-0.0378
ATTGTCGC	-0.0208
GAAACGGA	0.283
GGCCACAA	-0.217
CGAAGCCC	0.109
AAGCAGTG	-0.0258
CGCAGGCC	-0.0264
CCGGCACG	0.293
GGGTCCCA	-0.0319

Sequence	PBM E-score
AAAGCTAG	-0.296
CTCGAGGC	-0.0834
CGGCTAAG	0.321
CCTCTATA	-0.264
ACGAAAAA	-0.189
CCCCGCAG	0.15
GTCGAACA	-0.044
ACTTTGAA	-0.112
CAGTAGTC	-0.21
CACCGCTC	0.0568
ATAAGGGC	0.0162
ATCACCAC	-0.135
AGGCAAAC	-0.216
ACTTAGCG	-0.0252
GTGCACGA	-0.264
CCTTCTCG	-0.0615
CAGAGAGG	-0.216
GGAGTGAC	0.0112
ATGATATG	-0.0607
